Test results from PubChem BioAssay AID504706 (National Center for Advancing Translational Sciences (NCATS), 2011).
Out of some 320,000 compounds screened, about 200 (0.062%) were called active. Inconclusive results, whose numbers are uncertain, are shown with a selection of clear calls. The call rests on the fitted dose curve; in most records, active means well fitted activation curve with a large enough effect; inconclusive means small, poorly fitted or top-dose-only effect; inactive means no such curve, though single readings can be large or run the other way. No potency is given beside an inconclusive call; the fits are too rough.

Assay: qHTS assay for re-activators of p53 using a Luc reporter; further: nearly all actives have a fitted effect of over 45% in size
Details: H1299 p53-A138V BP100-luciferase reporter, luminescence, 24 h; series mostly up to 92.2 µM
Procedure, shortened: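 H1299 (p53-null), stable ts p53-A138V + BP100-Luc; 1000 cells/well, Opti-MEM/10% FBS; cpd 4 pt, 1:5; 24 h, 37 deg C, 5% CO2; detection reagent 10 min RT; luminescence.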
Potency means the concentration at half of the fitted maximal effect; tags describe the fitted curve by direction and shape.

Row | Compound | Potency
1 | COc1ccc(-c2cn3cc(C)ccc3n2)cc1OC | inconclusive [activator, single point]
2 | Cc1noc(C(=O)Nc2sc3c(c2C#N)CCC3)c1Cl | inactive
3 | COc1ccccc1NC(=O)c1ccc(-c2ccccc2F)o1 | inconclusive [activator, partial curve, poor fit]
4 | C/C(=N\NC(=O)c1ccccc1O)c1ccc(Br)s1 | inconclusive [activator, partial curve, poor fit]
5 | O=S(=O)(N1CCOCC1)N1CCOCC1 | inactive
6 | O=C(Nc1ccc2oc(-c3ccccc3)nc2c1)c1cccs1 | inconclusive [activator, full curve, poor fit]
7 | O=C(/C=C/c1ccccc1)c1ccc2c(c1)OCO2 | inconclusive [activator, partial curve, poor fit]
8 | CC(OC(=O)c1cnccn1)C(=O)Nc1nc(-c2cccc([N+](=O)[O-])c2)cs1 (stereo not drawn) | inconclusive [activator, partial curve, poor fit]
9 | CCOc1ccc(-c2nc(-c3ccc(OC)cc3)no2)cc1OCC | inconclusive [activator, partial curve, poor fit]
10 | Nc1c(C(=O)Nc2ccc3c(c2)OCCO3)nnn1Cc1ccccc1Cl | inconclusive [activator, full curve, poor fit]
11 | CC(=O)NCCc1nc2ccccc2n1Cc1cccc(C)c1 | inactive
12 | CCCCc1nc2cc(C(=O)N3CCC[C@H]3CO)ccc2o1 | inconclusive [activator, full curve, poor fit]
13 | Cc1ccc(S(=O)(=O)NC(=O)Nc2cc(C(C)(C)C)on2)cc1 | inactive
14 | COC(=O)C(Nc1nccs1)(OC)C(F)(F)F (stereo not drawn) | inconclusive [activator, single point]
15 | COCc1cc(=O)n2c([nH]c3ccccc32)c1C#N | inconclusive [activator, partial curve, poor fit]
16 | CCN(CC)C(=O)Cn1cc(C(=O)C(=O)NCCCN2CCCCC2)c2ccccc21 | inactive
17 | CS(=O)(=O)c1ccc(Sc2nc3ccccc3[nH]2)c([N+](=O)[O-])c1 | inactive
18 | NC(=O)c1cccc(-c2noc(-c3ccccc3F)n2)c1 | inconclusive [activator, full curve, poor fit]
19 | CC1Sc2ccc(S(=O)(=O)CCC(=O)Nc3ccc(C(C)C)cc3)cc2NC1=O (stereo not drawn) | inconclusive [activator, single point]
20 | CCOC(=O)N1CCN(S(=O)(=O)c2ccc(C(=O)NNc3nc4c(C)cc(C)cc4s3)cc2)CC1 | inconclusive [activator, partial curve, poor fit]
21 | O=C(CN1CCCCC1)NC(=O)NC1CCCCC1 | inconclusive [activator, partial curve, poor fit]
22 | COc1ccc(-c2csc(Nc3ccc(C)cn3)n2)cc1 | inactive
23 | O=[N+]([O-])c1cc(C(F)(F)F)ccc1Oc1cccnc1[N+](=O)[O-] | inconclusive [activator, single point]

Row | Compound | Potency
24 | CSc1ccc(C(=O)/C=C/c2ccc(N)cc2)cc1 | inconclusive [activator, partial curve, poor fit]
25 | Cc1cccc(C2=NN(c3ccccc3)[C@@H](C(=O)N3CCOC3=O)[C@@H]2c2ccc(Cl)cc2)c1 | inactive
26 | Cc1ccc(C(=O)N/C(=C/c2ccco2)C(=O)OCN2C(=O)c3ccccc3C2=O)cc1 | inactive
27 | CCn1c(COc2cccc(C)c2)nnc1SCC(=O)CC(=O)Nc1ccccc1OC | inactive
28 | CCN1CCN(c2cc(N3CCc4ccccc4C3)c(F)cc2[N+](=O)[O-])CC1 | inconclusive [activator, single point]
29 | CC1CCN(S(=O)(=O)c2ccc(NC(=O)CCNC(=O)c3ccc(Cl)cc3)cc2)CC1 | inactive
30 | c1ccc(CSCc2nc3ccccc3[nH]2)cc1 | inconclusive [activator, partial curve, poor fit]
31 | OCCNCc1ccc(OC2CCCC2)cc1 | inconclusive [activator, partial curve, poor fit]
32 | O=C(O)c1ccc(C[n+]2c(-c3ccccc3)csc2Nc2ccccc2)cc1 | inactive
33 | Oc1ccc(N=Nc2ccc3c(c2)OCCO3)c(O)c1 | inconclusive [activator, partial curve, poor fit]
34 | CCn1cnc2c1c(=O)[nH]c(=O)n2Cc1ccccc1 | inactive
35 | Cc1ccc(Cn2ncc3c(N4CCOCC4)ncnc32)cc1 | inactive
36 | CC1=CC(=O)C=C(C)C1=NOC(=O)c1cccc([N+](=O)[O-])c1 | inconclusive [activator, partial curve, poor fit]
37 | CCOCCCNc1ccc(-c2ccccc2)nn1 | inconclusive [activator, partial curve, poor fit]
38 | CSc1ccc(/C=C/C(=O)c2ccc(O)cc2)cc1 | inconclusive [activator, partial curve, poor fit]
39 | O=C(Nc1ccc2oc(-c3ccccc3F)nc2c1)c1ncn[nH]1 | inconclusive [activator, partial curve, poor fit]
40 | Oc1ccc(N=Nc2ccccc2)cc1 | inconclusive [activator, full curve, poor fit]
41 | Cc1cc(NC(=O)Cn2nnc3sc4c(c3c2=O)CCCC4)no1 | inactive
42 | COc1ccc(-c2cc(=O)c3cc(C)ccc3[nH]2)cc1 | inconclusive [activator, partial curve, poor fit]
43 | CCOc1ccc(N2C(=O)C(Cl)=C(Nc3ccccc3O)C2=O)cc1 | inconclusive [activator, partial curve, poor fit]
44 | COc1ccc(OCCN2CCN(C(=O)c3ccc(OC)cc3)CC2)cc1 | inactive
45 | O=C(Cn1cc([N+](=O)[O-])cn1)NC1CCCCCC1 | inactive
46 | O=C(Nc1sc2c(c1C(=O)NCc1ccco1)CCCC2)c1ccc2c(c1)OCO2 | inconclusive [activator, full curve, poor fit]

Row | Compound | Potency
47 | Cc1ccc(OCC(=O)Nc2ccc3c(c2)OCO3)c([N+](=O)[O-])n1 | inconclusive [activator, full curve, poor fit]
48 | CCCCn1cnc2c(cnn2-c2ccc(F)cc2)c1=O | inconclusive [activator, partial curve, poor fit]
49 | CCCCOC(=O)N/N=C/C=C/c1ccccc1 | inconclusive [activator, partial curve, poor fit]
50 | Cc1ccc(S(=O)(=O)N2CCN(C(=O)CSc3nnnn3C)C2)cc1 | inconclusive [activator, partial curve, poor fit]
51 | CCOC(=O)c1ccc(NC(=O)CSc2nnc(COc3ccccc3OC)n2C)cc1 | inconclusive [activator, single point]
52 | CN1CCN(c2ccc(NC(=O)COc3ccccc3Cl)cc2)CC1 | inconclusive [activator, partial curve, poor fit]
53 | Cc1ccc(CC(=O)O/N=C(\N)c2ccncc2)cc1 | inactive
54 | CN(C)S(=O)(=O)c1cccc(NC(=S)NNC(=O)c2cc3ccccc3cc2O)c1 | inconclusive [activator, single point]
55 | O=C(COC(=O)c1ccc([N+](=O)[O-])cc1Cl)Nc1cccnc1Cl | inactive
56 | COc1cccc2c1OCC/C2=N\NC(=O)COc1ccccc1C | inconclusive [activator, single point]
57 | O=C(Nc1ccc(Cl)cc1)Nc1ccc2c(c1)N1CCN=C1S2 | inconclusive [activator, full curve, poor fit]
58 | Cc1nn(-c2ccccc2)c(C)c1/C=N/O | inconclusive [activator, partial curve, poor fit]
59 | CC(/C=N/NC(=O)c1n[nH]c2c1CCC2)=C\c1ccccc1 | inconclusive [activator, partial curve, poor fit]
60 | O=C(CN1CCN(S(=O)(=O)c2ccc(Br)cc2)CC1)N/N=C/c1ccc(Cl)c([N+](=O)[O-])c1 | inactive
61 | CC1(C)CC(NC2C3CC4CC(C3)CC2C4)CC(C)(C)N1 (stereo not drawn) | inactive
62 | O=Cc1c[nH]c2cccc(OCc3ccccc3)c12 | inconclusive [activator, single point]
63 | c1nc(N2CCOCC2)c2c3c(sc2n1)CCCC3 | inactive
64 | O=C(N=Nc1c(O)[nH]c2ccccc12)c1cccc(S(=O)(=O)N2CCCCC2)c1 | inactive
65 | Cc1cccc(N2CSC3=C(C#N)C(c4ccc(C)o4)CC(=O)N3C2)c1 (stereo not drawn) | inconclusive [activator, partial curve, poor fit]
66 | C[C@@H](NC(=O)[C@@H]1Cc2ccccc2CN1)C(=O)Nc1ccc2c(c1)OCCO2 | inconclusive [activator, partial curve, poor fit]
67 | Cc1ccc(NC(=O)NC(=O)CN2CCC(C(N)=O)CC2)c(C)c1 | inconclusive [activator, partial curve, poor fit]
68 | CN(C(=O)c1ccc(NC(=O)Cc2cccc(NC(=O)C3CCCN(C(=O)C4CCCCC4)C3)c2)cc1)C1CCCC1 (stereo not drawn) | inconclusive [activator, single point]
